# In patent US11945858B2, “Antibodies and antibody fragments against HNAV1.7 channel and their use in pain and cancer indications” (NATIONAL RESEARCH COUNCIL OF CANADA, priority 2018, dated 2024):
# Columns and labels:
# CHO-3E7 = assay: Cell-ELISA on live CHO-3E7 cells; assay type: cell-based, Chinese hamster; conditions: hybridoma supernatant, OD450 nm
# [1] = test system: CFA-induced thermal hyperalgesia; assay: Hargreaves Model of Hyperalgesia in rats; assay type: in vivo, rat; conditions: 100 μg intraplantar
# [2] = test system: OD1-evoked Nav1.7-mediated spontaneous pain behaviours; assay type: in vivo, mouse; conditions: 100 μg, injected 60 minutes prior to OD1; 20 min after the injection
# VHH FC5 = assay: Surface Plasmon Resonance of mAbs, FC5 control; assay type: binding; conditions: SPR, 25 °C
# [3] = test system: overlapping antigen-peptides derived from DIE3IR; assay: ELISA of mAbs on overlapping antigen-peptides derived from DIE3IR; assay type: binding, human
# glioblastoma U87MG cells = assay: Soft agar assay, U87MG; conditions: mAb 1 μM; FIG. 24A
# [4] = test system: ovarian cancer SKOV-3 cells; assay: Soft agar assay, SKOV-3; conditions: mAb 1 μM; FIG. 24D
# [5] = test system: glioblastoma U87MGvIII cells; assay: Soft agar assay, U87MGvIII; conditions: mAb 1 μM; FIG. 24C
molecule,measurement,setting,value
"1B6: anti-hNav1.7 mouse monoclonal antibody, IgG1, k; heavy chain SEQ ID NO: 113, light chain SEQ ID NO: 115 (antibody, V domains shown, Heavy chain of the 1B6 antibody without leader sequence; Light chain of the 1B6 antibody without leader sequence) VH: QVQLKESGPGLVAPSQSLSITCTVSGFSLSRYNVHWVRQPPGKGLEWLGMIWGGGSTDYNSALKSRLSISKDNSKSQVFLKMNSLQTDDTAMYYCARNGANWDWFAYWGQGTLVTVSAAKTTPPSVY VL: DIVMSQSPSSLPVSVGEKVTMS[sequence of about 80 residues not given]FGSGTKLEIKRADAAPTVSIFPPSSV",ELISA on live cells (duplicates) CHO-3E7,CHO-3E7; duplicate 1,−0.013
same,ELISA on live cells (duplicates) CHO-3E7,CHO-3E7; duplicate 2,−0.012
same,Percentage of effect after injection (on left paw withdrawal),[1]; 0 h,0%
same,Latency paw withdrawal,[1]; 1 h,7.79 ± 0.56 s
same,Percentage of effect after injection (on left paw withdrawal),[1]; 1 h,18.28% ± 4.85
same,Latency paw withdrawal,[1]; 2 h,8.08 ± 0.46 s
same,Percentage of effect after injection (on left paw withdrawal),[1]; 2 h,22.20% ± 3.40
same,Latency paw withdrawal,[1]; 4 h,8.66 ± 0.45 s
same,Percentage of effect after injection (on left paw withdrawal),[1]; 4 h,25.96% ± 3.69
same,Maximum percentage of the effect (% Effect; % MPE),"[1]; time of maximum (1, 2 or 4 h)",25.96±3.69%
same,Time spent in pain behaviors (saline plus OD1 = 100%),[2],94.13%±28.63
same,"Binding to FC5 control (comment, in words)",VHH FC5,did not bind
same,"Binding to FC5 control (comment, in words)",VHH FC5; listed as IB6,No binding
same,Binding with pep #2a and pep #2b (in words),[3],no binding
same,Peptide in which the binding motif resides / that is bound,[3]; peptides coated 100-500 ng/well,pep #2
same,Reduction of colony formation,glioblastoma U87MG cells,did not affect colony formation; also recorded: no inhibitory effect
same,Reduction of colony formation,[4],did not reduce colony formation; also recorded: no inhibitory effect
same,Reduction of colony formation,[5],53%

# “Also recorded” adds a separate entry of the source.
